{
  "source": "PubChem BioAssay AID686978",
  "about": "(National Center for Advancing Translational Sciences (NCATS), 2013)",
  "note": "The campaign covered roughly 420,000 compounds. About 64,000 (15%) were called active. Inconclusive results, whose numbers are uncertain, are shown with a selection of clear calls. The call rests on the fitted dose curve; in most records, active means well fitted inhibition curve with a large enough effect; inconclusive means small, poorly fitted or top-dose-only effect; inactive means flat fitted curve, though single readings scatter. No potency is given beside an inconclusive call; the fits are too rough. On the % scale 0 is the no-effect control and ±100 the full control effect; potency means the concentration at half of the fitted maximal effect; tags describe the fitted curve by direction and shape.",
  "data": [
    {"test": "qHTS for Inhibitors of human tyrosyl-DNA phosphodiesterase 1 (TDP1): qHTS in cells in absence of CPT; further: nearly all actives have a fitted effect of over 55% in size", "settings": "DT40 Tdp1-/- hTDP1 cells, no CPT, ATP luminescence, 48 h; activity change, negative = growth inhibition: at 46.2 µM (top of the series)", "how_it_was_run": "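DT40 Tdp1-/-;hTDP1 cells, no CPT (DMSO vehicle only), 400 cells/well; compounds pin-transferred; ≥48 hr, 37 °C; CellTiter-Glo 30 min RT dark, luminescence read.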", "values": [
      {"smiles": "CCCc1ccc2oc(C(=O)N(C)Cc3nccs3)c(C)c2c1", "Potency": "inconclusive [inhibitor, partial curve]"},
      {"smiles": "O=C(Cc1c(F)cccc1Cl)NNC(=O)c1ccccc1Cl", "activity change, negative = growth inhibition": "inactive: 11.5%"},
      {"smiles": "Cc1nc2cc(NC(=O)NCc3ccccc3)ccc2o1", "activity change, negative = growth inhibition": "inactive: -13.9%"},
      {"smiles": "CCCOc1cc(C)c(S(=O)(=O)N2CCN(C)CC2)cc1C", "Potency": "inconclusive [inhibitor, single point]"},
      {"smiles": "O=C(CC1CCCCC1)NCc1ccccn1", "activity change, negative = growth inhibition": "inactive: 1.24%"},
      {"smiles": "O=C(CSc1nccn1-c1ccc(Cl)cc1)Nc1ccc(Cl)c(Cl)c1", "Potency": "inconclusive [inhibitor, single point]"},
      {"smiles": "COc1cc(NC(=O)N2c3ccccc3Sc3ccccc32)cc(OC)c1", "Potency": "inconclusive [inhibitor, single point]"},
      {"smiles": "CN1CCN(c2ccc(Cl)cc2NC(=O)C2COc3ccccc3O2)CC1", "note": "(centres undefined)", "Potency": "active: 29.1 µM"},
      {"smiles": "Cn1c(NCc2ccc3occc3c2)nc2cc(-c3cccc(C(F)(F)F)c3)sc2c1=O", "activity change, negative = growth inhibition": "inactive: -28.9%"},
      {"smiles": "Cc1ccccc1-c1ccc(/C=C2/SC(N3CCOCC3)=NC2=O)o1", "Potency": "active: 7.31 µM"},
      {"smiles": "Cc1cccc(-c2nc3c(s2)CCc2onc(-c4ccc(Br)cc4)c2-3)c1", "activity change, negative = growth inhibition": "inactive: -15.9%"},
      {"smiles": "COc1ccc2oc(=O)c(C(=O)Nc3ccccc3O)cc2c1", "Potency": "inconclusive [inhibitor, full curve, poor fit]"},
      {"smiles": "CCC(CC)c1nnc(NC(=O)CSCc2c(C)noc2C)s1", "Potency": "inconclusive [inhibitor, partial curve]"},
      {"smiles": "O=C(COC(=O)/C=C/c1ccc(Cl)c(Cl)c1)NC1CCCC1", "activity change, negative = growth inhibition": "inactive: -12.1%"},
      {"smiles": "COc1ccc(N2C(=O)CC(Sc3nc4ccccc4s3)C2=O)cc1", "note": "(centres undefined)", "Potency": "active: 3.66 µM"},
      {"smiles": "COc1ccccc1NC(=O)CCC(=O)Nc1cc(OC)c(NC(=O)c2cccs2)cc1OC", "Potency": "inconclusive [inhibitor, single point]"},
      {"smiles": "CCCCN1C(=N)N([C@@H](CCC)CN2CCC[C@H]2CN2C(N)=NC[C@H]2C(C)C)C[C@H]1[C@H](C)CC", "Potency": "inconclusive [inhibitor, partial curve]"},
      {"smiles": "Cc1cccc(N2CCN(C(=O)CN3C(=O)CSc4c3c(C)nn4-c3ccccc3)CC2)c1C", "Potency": "inconclusive [inhibitor, full curve, poor fit]"},
      {"smiles": "CN1CCc2c(sc(NC(=O)CSc3ccccc3)c2-c2nc3ccccc3s2)C1", "Potency": "active: 20.6 µM"},
      {"smiles": "CCCOC(=O)c1c(NC(=O)C(C)Sc2nc(-c3ccccc3)cc(C(F)(F)F)n2)sc(C(=O)N(C)C)c1C", "note": "(centres undefined)", "Potency": "active: 14.6 µM"},
      {"smiles": "CCOC1=C2[C@@H](CN(S(=O)(=O)c3ccc(C)cc3)[C@H]2c2cccc3ccccc23)[C@H]2C(=O)N(Cc3ccccc3)C(=O)[C@H]2C1", "Potency": "inconclusive [inhibitor, single point]"},
      {"smiles": "COc1ccc(N2CCN(CCCNC(=O)c3ccc(CS(=O)(=O)c4ccc(OC)cc4)o3)CC2)cc1", "Potency": "inconclusive [inhibitor, partial curve]"},
      {"smiles": "COc1ccc(S(=O)(=O)N2CCC(C(=O)N3CCCCC3)CC2)cc1Cl", "activity change, negative = growth inhibition": "inactive: -26.9%"},
      {"smiles": "O=C(NCCCc1ccccc1)Nc1cccc(Cl)c1", "Potency": "inconclusive [inhibitor, single point]"},
      {"smiles": "CCc1nc2c(OCc3cc(Cl)cc(Cl)c3)cccn2c1N(C)C(=O)c1cccc(OC)c1", "Potency": "inconclusive [inhibitor, single point]"},
      {"smiles": "C=COCCCNc1ncnc2sc(-c3ccccc3)cc12", "Potency": "active: 14.6 µM"},
      {"smiles": "Cc1ccc2oc(Nc3nc(C)c(C)c(C)n3)nc2c1", "Potency": "inconclusive [inhibitor, single point]"},
      {"smiles": "CCc1ccc(NC(=O)[C@H](Cc2ccccc2)N2Cc3ccccc3C2=O)cc1", "Potency": "inconclusive [inhibitor, single point]"},
      {"smiles": "CCOc1ccc(S(=O)(=O)c2c(C(=O)c3ccc(CC)cc3)cnc3ccc(C)cc23)cc1", "Potency": "active: 23.1 µM"},
      {"smiles": "O=C1CN(C(=O)c2c(F)cccc2F)C(c2ccc(F)cc2)c2cc(F)ccc2N1", "note": "(centres undefined)", "activity change, negative = growth inhibition": "inactive: -12.6%"},
      {"smiles": "COc1ccc(N2CCN(C(=O)CCCC(=O)c3ccccc3)CC2)cc1", "Potency": "inconclusive [inhibitor, single point]"},
      {"smiles": "COc1cccc(Nc2nc3ccccc3n3cnnc23)c1", "Potency": "inconclusive [inhibitor, single point]"},
      {"smiles": "O=C(c1ccc(N2CCCC2=O)cc1)N1CCN(c2ccc(Cl)cc2)CC1", "Potency": "inconclusive [inhibitor, partial curve]"},
      {"smiles": "O=C(O)c1cccc(N/N=C(\\N=Nc2ccccc2)c2ccccc2)c1", "activity change, negative = growth inhibition": "inactive: -25%"},
      {"smiles": "Cc1ccc(-c2nn(CC(=O)NN3CCOCC3)c(=O)c3ccccc23)cc1", "activity change, negative = growth inhibition": "inactive: 0.138%"},
      {"smiles": "CCOC(=O)C1CCCN(C(=O)Cn2cnc3c2c(=O)n(C)c(=O)n3C)C1", "note": "(centres undefined)", "activity change, negative = growth inhibition": "inactive: -0.0149%"},
      {"smiles": "COC(=O)CC1C(C)(C)C(OC(C)=O)C2[C@H](OC(C)=O)[C@]34O[C@]2(O)[C@]1(C)C3CC[C@]1(C)C4=CC(=O)OC1c1ccoc1", "note": "(some centres undefined)", "Potency": "active: 16.4 µM"},
      {"smiles": "CCCN(CCC)CCCNC(=O)c1cc2c(-c3ccc(OC)c(OC)c3)nn(C)c2s1", "Potency": "active: 4.61 µM"},
      {"smiles": "COc1cc(O)c(C(CC(=O)N2CCCC(C)C2)c2cc(OC)c(OC)c(OC)c2)c(OC)c1", "note": "(centres undefined)", "activity change, negative = growth inhibition": "inactive: -6.78%"},
      {"smiles": "Cc1ccc(-n2nc(C)c3c(C)c(CCC(=O)NCc4ccccc4)c(C)nc32)cc1", "Potency": "inconclusive [inhibitor, single point]"},
      {"smiles": "O=C(/C=C/c1ccc(Br)cc1)NC(=S)Nc1ccc(S(=O)(=O)Nc2nccs2)cc1", "Potency": "inconclusive [inhibitor, single point]"},
      {"smiles": "CCCCSC1(SCCCC)N=C(N)C2(C#N)C(c3ccccc3)NC(C)=C(C)C12C#N", "note": "(centres undefined)", "Potency": "inconclusive [inhibitor, single point]"},
      {"smiles": "COc1ccc2cc(C(=O)C3CCCN(C(=O)C4=NN(C)C(=O)CC4)C3)ccc2c1", "note": "(centres undefined)", "Potency": "inconclusive [inhibitor, single point]"},
      {"smiles": "C[C@@H]1CN([C@H](C)CO)S(=O)(=O)c2ccc(Br)cc2O[C@H]1CN(C)C(=O)Nc1cccc(F)c1", "Potency": "inconclusive [inhibitor, single point]"},
      {"smiles": "Cc1sc(NC(=O)CSc2nc(O)cc(=O)[nH]2)nc1-c1ccccc1", "activity change, negative = growth inhibition": "inactive: -21.3%"},
      {"smiles": "COC(=O)[C@@H]1Cc2c([nH]c3ccccc23)C(C)N1C(=O)c1ccccc1", "note": "(some centres undefined)", "Potency": "inconclusive [inhibitor, single point]"},
      {"smiles": "Cc1cccc(C)c1OCC(O)CNS(=O)(=O)c1ccccc1C(=O)N1CCOCC1", "note": "(centres undefined)", "Potency": "inconclusive [inhibitor, partial curve]"},
      {"smiles": "Cc1cccc(C)c1N1C(=O)CC(Sc2ccccc2N)C1=O", "note": "(centres undefined)", "Potency": "inconclusive [inhibitor, single point]"},
      {"smiles": "COc1ccc(-c2cc(C(=O)OC(C)C(=O)Nc3c(C)n(C)n(-c4ccccc4)c3=O)c3ccccc3n2)cc1", "note": "(centres undefined)", "Potency": "inconclusive [inhibitor, single point]"},
      {"smiles": "CC(C)CN(C1CCS(=O)(=O)C1)S(=O)(=O)c1ccc(C(C)C)cc1", "note": "(centres undefined)", "Potency": "inconclusive [inhibitor, partial curve]"},
      {"smiles": "Cc1cc(C)c(C)c(S(=O)(=O)N2CCN(C(=O)CCc3nc4ccccc4c(=O)[nH]3)CC2)c1C", "activity change, negative = growth inhibition": "inactive: -24.8%"},
      {"smiles": "C/C(=N\\NC(=O)c1cc(-c2cccc([N+](=O)[O-])c2)n[nH]1)c1ccccc1O", "Potency": "inconclusive [inhibitor, partial curve, poor fit]"},
      {"smiles": "O=c1[nH]c(=S)[nH]cc1Oc1ccc(Cl)cc1", "activity change, negative = growth inhibition": "inactive: -14.5%"},
      {"smiles": "Cc1ccc(S(=O)(=O)n2nc(-c3ccccc3)nc2NCc2ccc(Cl)cc2)cc1", "Potency": "inconclusive [inhibitor, single point]"},
      {"smiles": "CC(C)c1ccc(OC(=O)c2cccc(S(=O)(=O)N3CCN(C)CC3)c2)cc1", "Potency": "active: 18.4 µM"},
      {"smiles": "Cc1ccc([N+](=O)[O-])c(OCCN2CCC(Cc3ccccc3)CC2)c1", "Potency": "inconclusive [inhibitor, single point]"},
      {"smiles": "CSc1ccc(CN2CCOc3ccc(CN4CCCCC4CO)cc3C2)cc1", "note": "(centres undefined)", "Potency": "inconclusive [inhibitor, single point]"},
      {"smiles": "CC1Cc2ccccc2N1C(=O)c1ccc(N2CCCC2)c([N+](=O)[O-])c1", "note": "(centres undefined)", "Potency": "inconclusive [inhibitor, single point]"},
      {"smiles": "COc1ccc(S(=O)(=O)N(C)CC(=O)N2CCCC2)cc1Cl", "activity change, negative = growth inhibition": "inactive: -25.7%"},
      {"smiles": "COCCNC(=O)C1(C)CCN(Cc2cccc(Oc3ccccc3)c2)C1", "note": "(centres undefined)", "Potency": "inconclusive [inhibitor, single point]"},
      {"smiles": "CC(C)Cn1c(-c2ccccc2)nc(=S)c2c1CCCC2", "Potency": "inconclusive [inhibitor, single point]"},
      {"smiles": "O=C(CNc1cccc(S(=O)(=O)N2CCOCC2)c1)Nc1ccc(C(F)(F)F)cc1", "Potency": "active: 16.4 µM"},
      {"smiles": "COc1cccc(CNC(=O)CC2Sc3ccccc3NC2=O)c1", "note": "(centres undefined)", "activity change, negative = growth inhibition": "inactive: -1.36%"},
      {"smiles": "COC1c2ccccc2C(=O)N1Cc1ccc(F)cc1", "note": "(centres undefined)", "activity change, negative = growth inhibition": "inconclusive: -30.1% [inhibitor]"},
      {"smiles": "COC(=O)c1cc(=O)n(-c2ccccc2)c(=Nc2ccccc2)s1", "Potency": "active: 23.1 µM"},
      {"smiles": "CCN(CCO)Cc1csc2ccc(Br)cc12", "Potency": "inconclusive [inhibitor, single point]"},
      {"smiles": "CC1(C(=O)O)CCN1C(=O)c1cccc(OC(F)(F)F)c1", "note": "(centres undefined)", "activity change, negative = growth inhibition": "inactive: -0.578%"},
      {"smiles": "C=C1C[C@@H]2C[C@@H]2CN(S(=O)(=O)c2ccc(C)cc2)[C@@H]1c1ccco1", "Potency": "inconclusive [inhibitor, single point]"},
      {"smiles": "O=C(NCC1CC1)[C@@H]1C[C@H]1[C@@H](NP(=O)(c1ccccc1)c1ccccc1)c1ccccc1", "Potency": "inconclusive [inhibitor, single point]"}
    ]}
  ]
}
